Results on ten molecules are retold here after paper PMC3182262.

The chains behind the UniProt entries cited, without tags or fusion partners. Where a name states a change or a piece, a line headed by the entry shows the natural chain unless it says otherwise. A line that says so, or that is headed by a name, gives the form on record, which may keep a tag or linker. Residues count along the entry.
UniProt P37173: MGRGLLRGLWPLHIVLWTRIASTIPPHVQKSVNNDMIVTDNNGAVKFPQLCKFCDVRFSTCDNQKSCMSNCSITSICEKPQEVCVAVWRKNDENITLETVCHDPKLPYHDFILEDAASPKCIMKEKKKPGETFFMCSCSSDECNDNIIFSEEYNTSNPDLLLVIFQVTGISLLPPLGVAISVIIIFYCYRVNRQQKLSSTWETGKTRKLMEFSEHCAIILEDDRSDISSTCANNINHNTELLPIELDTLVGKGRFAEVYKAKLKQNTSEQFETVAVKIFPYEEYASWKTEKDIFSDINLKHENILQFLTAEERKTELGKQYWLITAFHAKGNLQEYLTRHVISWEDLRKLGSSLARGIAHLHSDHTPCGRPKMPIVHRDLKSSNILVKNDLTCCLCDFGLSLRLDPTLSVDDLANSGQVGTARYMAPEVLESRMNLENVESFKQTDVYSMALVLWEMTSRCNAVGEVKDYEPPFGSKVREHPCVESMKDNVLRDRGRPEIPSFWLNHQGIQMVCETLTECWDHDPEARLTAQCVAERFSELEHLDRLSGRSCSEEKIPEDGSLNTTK
TGF-β type II receptor (TβRII), FLAG tagged, expressed in HEK293T cells: residues 23-567 of P37173
GST-tagged cytoplasmic domain of TβRII: residues 188-567 of P37173

The target of assay [1] is T1, HA epitope tagged TAK1 (TGF-β-activated kinase 1), wild type (UniProt O43318).
T1 sequence: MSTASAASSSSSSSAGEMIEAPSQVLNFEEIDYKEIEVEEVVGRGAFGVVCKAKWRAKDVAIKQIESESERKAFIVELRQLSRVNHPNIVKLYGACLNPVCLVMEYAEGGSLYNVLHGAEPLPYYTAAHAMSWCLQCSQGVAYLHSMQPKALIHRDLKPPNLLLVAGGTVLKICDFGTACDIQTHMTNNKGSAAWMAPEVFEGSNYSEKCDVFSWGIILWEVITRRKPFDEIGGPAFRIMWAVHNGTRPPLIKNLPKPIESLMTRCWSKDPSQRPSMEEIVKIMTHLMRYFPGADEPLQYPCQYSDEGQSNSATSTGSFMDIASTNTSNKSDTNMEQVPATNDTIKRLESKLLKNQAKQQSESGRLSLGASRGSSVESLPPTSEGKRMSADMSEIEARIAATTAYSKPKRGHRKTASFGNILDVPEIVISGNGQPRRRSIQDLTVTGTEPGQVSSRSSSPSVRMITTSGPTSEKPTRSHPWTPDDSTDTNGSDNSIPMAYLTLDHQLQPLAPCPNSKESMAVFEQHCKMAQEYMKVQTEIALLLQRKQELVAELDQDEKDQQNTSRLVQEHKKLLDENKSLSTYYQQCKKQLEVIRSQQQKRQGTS
As to the kind of experiment: co-IP; TRAF6 or TAK1 precipitated from transfected HEK293T cells; co-precipitating TTRAP fragments detected by western blotting. For orientation: In western blotting, separated proteins are transferred to a membrane and probed.

Assay [2] addresses T2, TRAF6(C70A), catalytically deficient RING domain mutant, FLAG tagged (UniProt Q9Y4K3).
T2 sequence: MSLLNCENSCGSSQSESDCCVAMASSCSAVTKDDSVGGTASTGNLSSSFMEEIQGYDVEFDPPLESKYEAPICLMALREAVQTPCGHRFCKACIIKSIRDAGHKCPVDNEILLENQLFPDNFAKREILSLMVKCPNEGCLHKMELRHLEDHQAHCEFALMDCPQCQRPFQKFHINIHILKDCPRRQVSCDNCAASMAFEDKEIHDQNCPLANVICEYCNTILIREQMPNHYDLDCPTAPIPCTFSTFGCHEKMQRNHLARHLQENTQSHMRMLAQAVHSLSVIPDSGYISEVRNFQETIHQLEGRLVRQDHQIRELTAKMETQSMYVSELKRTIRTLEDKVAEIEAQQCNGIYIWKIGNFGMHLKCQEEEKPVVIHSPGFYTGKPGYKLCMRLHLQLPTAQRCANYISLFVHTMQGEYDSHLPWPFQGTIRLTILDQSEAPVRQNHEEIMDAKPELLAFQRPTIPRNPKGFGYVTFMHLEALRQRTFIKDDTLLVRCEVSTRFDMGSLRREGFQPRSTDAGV
In words: co-IP; proteins co-expressed in HEK293T cells; TRAFs (TRAF6, TRAF6(C70A), TRAF2) pulled down from total lysates; western blotting.

The target in assay [3] is T3, FLAG-TAK1, expressed in HEK293T cells (UniProt O43318).
T3 sequence: T1 sequence
As to the kind of experiment: co-IP; FLAG-TAK1 precipitated with a FLAG antibody from transfected HEK293T cells; western blotting; TRAF6 or TRAF2 co-expressed.

Assay [4] concerns the target TGF-β type II receptor (TβRII), FLAG tagged, expressed in HEK293T cells (UniProt P37173). As to the kind of experiment: co-IP; proteins co-expressed in HEK293T cells; TGF-β receptors precipitated from total lysates with a FLAG antibody; western blotting; with or without co-expressed TRAF6 or TRAF2.
The target in assay [5] is T4, TAB2 (TAK1 binding protein 2), expressed in HEK293T cells (UniProt Q9NYJ8).
T4 sequence: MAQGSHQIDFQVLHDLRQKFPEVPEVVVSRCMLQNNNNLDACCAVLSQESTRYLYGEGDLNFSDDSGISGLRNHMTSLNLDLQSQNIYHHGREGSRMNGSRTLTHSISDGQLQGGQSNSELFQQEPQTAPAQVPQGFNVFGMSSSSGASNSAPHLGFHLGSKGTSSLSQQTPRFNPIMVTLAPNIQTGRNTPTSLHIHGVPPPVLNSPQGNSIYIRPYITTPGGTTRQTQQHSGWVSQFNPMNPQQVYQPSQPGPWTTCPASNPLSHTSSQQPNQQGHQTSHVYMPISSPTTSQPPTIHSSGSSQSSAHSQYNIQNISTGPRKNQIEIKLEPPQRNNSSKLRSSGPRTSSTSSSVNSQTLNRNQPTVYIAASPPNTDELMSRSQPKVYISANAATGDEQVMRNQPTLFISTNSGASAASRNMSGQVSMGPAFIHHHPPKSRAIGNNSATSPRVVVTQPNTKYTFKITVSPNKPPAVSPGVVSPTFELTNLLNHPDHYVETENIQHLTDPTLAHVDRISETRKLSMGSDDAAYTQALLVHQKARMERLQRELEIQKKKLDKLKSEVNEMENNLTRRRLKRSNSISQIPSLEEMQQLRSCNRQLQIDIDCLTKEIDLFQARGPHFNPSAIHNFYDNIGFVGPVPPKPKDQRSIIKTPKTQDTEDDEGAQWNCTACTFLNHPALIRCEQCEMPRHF
As to the kind of experiment: co-IP; TAB2 precipitated from transfected HEK293T cells, with or without co-expressed TRAF6; western blotting.

Assay [6] has as its target T5, GST-tagged cytoplasmic domain of TβRI (UniProt P36897).
T5 sequence: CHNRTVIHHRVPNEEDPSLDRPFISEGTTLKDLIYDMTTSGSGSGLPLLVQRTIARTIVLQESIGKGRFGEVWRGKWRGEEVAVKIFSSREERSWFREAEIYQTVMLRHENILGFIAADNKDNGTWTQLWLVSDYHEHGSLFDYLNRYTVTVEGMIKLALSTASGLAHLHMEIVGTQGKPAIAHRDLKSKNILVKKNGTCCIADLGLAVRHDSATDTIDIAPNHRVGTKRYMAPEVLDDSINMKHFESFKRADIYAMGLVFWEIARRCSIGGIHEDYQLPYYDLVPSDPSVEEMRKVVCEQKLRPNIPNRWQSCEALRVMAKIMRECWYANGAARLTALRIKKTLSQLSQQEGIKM
As to the kind of experiment: pull-down; GST-tagged receptor cytoplasmic domains immobilized on glutathione beads; HA-TTRAP made in rabbit reticulocyte lysate; western blotting; only the target purified.

In assay [7] the target is GST-tagged cytoplasmic domain of TβRII (UniProt P37173). The description is as above.
In assay [8] the target is T6, FLAG-TTRAP, transiently expressed in HEK293T cells (UniProt O95551).
T6 sequence: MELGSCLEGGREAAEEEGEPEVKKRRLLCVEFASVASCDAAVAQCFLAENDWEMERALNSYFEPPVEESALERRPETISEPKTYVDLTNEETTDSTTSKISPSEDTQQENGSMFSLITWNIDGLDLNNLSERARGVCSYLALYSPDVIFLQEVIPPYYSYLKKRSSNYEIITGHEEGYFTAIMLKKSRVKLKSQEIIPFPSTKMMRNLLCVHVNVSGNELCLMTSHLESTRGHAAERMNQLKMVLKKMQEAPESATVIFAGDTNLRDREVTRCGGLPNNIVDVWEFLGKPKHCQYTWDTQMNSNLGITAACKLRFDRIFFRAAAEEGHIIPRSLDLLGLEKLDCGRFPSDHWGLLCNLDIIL
As to the kind of experiment: co-IP; proteins co-expressed in HEK293T cells; TTRAP precipitated from the lysates (FLAG); western blotting; in one panel cells treated with 0.5 µM (5Z)-7-oxozeaenol.

The target of assay [9] is T7, FLAG epitope tagged TTRAP (TRAF and TNF receptor associated protein), stably expressed in NMuMG cells (UniProt O95551).
T7 sequence: T6 sequence
As to the kind of experiment: co-IP; FLAG-TTRAP precipitated with FLAG affinity beads from lysates of NMuMG cells stably expressing it, untreated or treated with TGF-β (4 ng/ml); endogenous partner detected by western blotting.

Assay [10] has as its target T7, FLAG epitope tagged TTRAP (TRAF and TNF receptor associated protein), stably expressed in NMuMG cells. As to the kind of experiment: co-IP; FLAG-TTRAP precipitated from NMuMG cells stably expressing it after 180 minutes of TGF-β treatment; endogenous TAK1 detected by western blotting.

Residue numbers refer to the chain shown, from its start. Numbers in names are those of the source. No constants are given. Whether binding was seen depends on the method and setting. Binding seen in cells or lysates may run through a third protein. Some binding calls cover weakened binding; strength is not graded here. Tags and fused reporters may be left off the sequences shown.

B1: N-terminal 1-123 aa segment of TTRAP (domain or fragment, UniProt O95551 1-123)
chain: MELGSCLEGGREAAEEEGEPEVKKRRLLCVEFASVASCDAAVAQCFLAENDWEMERALNSYFEPPVEESALERRPETISEPKTYVDLTNEETTDSTTSKISPSEDTQQENGSMFSLITWNIDG
Take B1: in assay [1], the binding entry was “binds”.

B2: HA-TTRAP, transiently expressed in HEK293T cells (protein, UniProt O95551 1-362)
chain: T6 sequence
On to B2, for which the binding entry in assay [2], in assay [3], in [4] and in assay [5] was “binds” throughout.

B3: HA-tagged TTRAP synthesized in rabbit reticulocyte lysate (protein, UniProt O95551 1-362)
chain: T6 sequence
Turning to B3, the binding entry in assay [6] and in assay [7] was “binds” each time.

B4: HA epitope tagged TAK1 (TGF-β-activated kinase 1), wild type (enzyme, UniProt O43318 1-606)
chain: T1 sequence
Take B4: the binding result in assay [2] and in assay [8] was “binds” in each case.

B5: HA-TAK1 with lysine-34 replaced by arginine (enzyme, UniProt O43318 1-606)
chain: T1 sequence with K34R
As for B5, the binding result in assay [8] is “binds”.

B6: HA-TAK1 activation loop mutant (S192A) (enzyme, UniProt O43318 1-606)
chain: T1 sequence with S192A
For the molecule B6, in assay [8], the binding entry is “no binding”.

B7: HA-TAK1 ATP binding site mutant (K63W) (enzyme, UniProt O43318 1-606)
chain: T1 sequence with K63W
In the case of B7, in [8], the binding entry is reported as “no binding”.

B8: HA-TAK1 activation loop mutant (T184,187V) (enzyme, UniProt O43318 1-606)
chain: T1 sequence with T184V, T187V
On to B8, for which, in assay [8], the binding entry is reported as “no binding”.

B9: HA-TAK1 E39G point mutant (catalytically active) (enzyme, UniProt O43318 1-606)
chain: T1 sequence with E39G
As to B9, the binding result in [8] is given as “binds”.

B10: endogenous TAK1 of NMuMG cells (enzyme, UniProt Q62073 1-579)
chain: MSTASAASSSSSSSASEMIEAPSQVLNFEEIDYKEIEVEEVVGRGAFGVVCKAKWRAKDVAIKQIESESERKAFIVELRQLSRVNHPNIVKLYGACLNPVCLVMEYAEGGSLYNVLHGAEPLPYYTAAHAMSWCLQCSQGVAYLHSMQPKALIHRDLKPPNLLLVAGGTVLKICDFGTACDIQTHMTNNKGSAAWMAPEVFEGSNYSEKCDVFSWGIILWEVITRRKPFDEIGGPAFRIMWAVHNGTRPPLIKNLPKPIESLMTRCWSKDPSQRPSMEEIVKIMTHLMRYFPGADEPLQYPCQYSDEGQSNSATSTGSFMDIASTNTSNKSDTNMEQVPATNDTIKRLESKLLKNQAKQQSESGRLSLGASRGSSVESLPPTSEGKRMSADMSEIEARIVATAGNGQPRRRSIQDLTVTGTEPGQVSSRSSSPSVRMITTSGPTSEKPARSHPWTPDDSTDTNGSDNSIPMAYLTLDHQLQPLAPCPNSKESMAVFEQHCKMAQEYMKVQTEIALLLQRKQELVAELDQDEKDQQNTSRLVQEHKKLLDENKSLSTYYQQCKKQLEVIRSQQQKRQGTS
As for B10, the binding entry is listed as “binds” in [9] and “binds weakly” in assay [10].
